Source: the supplement of paper PMC10369915
Some of the results follow. No stated cut-off is given here; in the data, active = 3.2 or more and inactive = the rest. Most of these values are background signal.

B1: BTK_Y461_G462D (peptide)
chain: KLVQLYDVCTK
B2: BTK_Y461_G462V (peptide)
chain: KLVQLYVVCTK
B3: BTK_Y511 (peptide)
chain: CEAMEYLESKQ
B4: BTK_Y511_A508D (peptide)
chain: CEDMEYLESKQ
B5: BTK_Y511_C506R (peptide)
chain: REAMEYLESKQ
B6: BTK_Y617 (peptide)
chain: QGLRLYRPHLA
B7: BTK_Y617_A622P (peptide)
chain: QGLRLYRPHLP
B8: BTK_Y617_G613D (peptide)
chain: QDLRLYRPHLA
B9: BTK_Y617_P619A (peptide)
chain: QGLRLYRAHLA
B10: BUB1_Y538 (peptide)
chain: GNKENYGLPQP
B11: C1orf162_Y120 (peptide)
chain: GESLTYASTTF
B12: C1orf162_Y120_A121V (peptide)
chain: GESLTYVSTTF
B13: C1QTNF1_Y145_S143N (peptide)
chain: RCKNHYAAFSV
B14: C4BPA_Y470 (peptide)
chain: KLSCSYSHWSA
B15: C5orf64_Y60 (peptide)
chain: LTAEVYFPSIK
B16: C7orf57_Y70 (peptide)
chain: ETDSEYVKLAK
B17: C7orf57_Y70_A74S (peptide)
chain: ETDSEYVKLSK
B18: C9orf24_Y126_R129W (peptide)
chain: NKYTTYLPWLP
B19: C9orf24_Y126_YF (peptide)
chain: NKFTTYLPRLP

Biological target: SHP2 C-SH2 domain E139D
Assay: enrichment score (SH2-bound / input frequency) (ratio); bacterial display of known human phosphotyrosine sites (pTyr-Var adds point mutants) read by sequencing; higher = stronger binding; tyrosines were phosphorylated by kinases first
Settings: peptide library: pTyr-Var
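Further: displayed peptides selected on beads carrying the immobilized SH2 domain, with library peptides lacking any tyrosine serving as negative controls.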

Binder | enrichment score
B1 | inactive: 1.02
B2 | inactive: 1.25
B3 | inactive: 1.12
B4 | inactive: 0.774
B5 | inactive: 0.621
B6 | inactive: 1.24
B7 | inactive: 1.14
B8 | inactive: 1.36
B9 | inactive: 2.4
B10 | inactive: 0.636
B11 | inactive: 0.548
B12 | inactive: 0.639
B13 | inactive: 2.96
B14 | inactive: 1.21
B15 | inactive: 1.35
B16 | inactive: 0.406
B17 | inactive: 0.532
B18 | inactive: 1.11
B19 | inactive: 1.12

Biological target: SHP2 C-SH2 domain wild-type
Assay: as above
Settings: peptide library: pTyr-Var

Binder | enrichment score
B1 | inactive: 0.979
B2 | inactive: 1.15
B3 | inactive: 1.23
B4 | inactive: 1.01
B5 | inactive: 0.534
B6 | inactive: 1.22
B7 | inactive: 0.716
B8 | inactive: 0.911
B9 | inactive: 1.93
B10 | inactive: 0.639
B11 | inactive: 0.448
B12 | inactive: 0.56
B13 | inactive: 2.63
B14 | inactive: 1.25
B15 | inactive: 1.64
B16 | inactive: 0.534
B17 | inactive: 0.453
B18 | inactive: 1.57
B19 | inactive: 1.21

Biological target: SHP2 N-SH2 domain L43F
Assay: as above
Settings: peptide library: pTyr-Var

Binder | enrichment score
B1 | inactive: 0.959
B2 | inactive: 1.01
B3 | inactive: 1.04
B4 | inactive: 0.954
B5 | inactive: 0.699
B6 | inactive: 1.13
B7 | inactive: 1.37
B8 | inactive: 0.918
B9 | inactive: 2.44
B10 | inactive: 0.541
B11 | inactive: 0.968
B12 | inactive: 1.1
B13 | active: 3.49
B14 | inactive: 1.03
B15 | inactive: 1.17
B16 | inactive: 0.521
B17 | inactive: 0.373
B18 | inactive: 1.29
B19 | inactive: 1.05

Biological target: SHP2 N-SH2 domain T42A
Assay: as above
Settings: peptide library: pTyr-Var

Binder | enrichment score
B1 | inactive: 0.982
B2 | inactive: 0.929
B3 | inactive: 0.735
B4 | inactive: 0.564
B5 | inactive: 0.767
B6 | inactive: 0.969
B7 | inactive: 0.617
B8 | inactive: 0.733
B9 | inactive: 2.5
B10 | inactive: 0.548
B11 | inactive: 0.866
B12 | inactive: 1
B13 | inactive: 2.54
B14 | inactive: 1.18
B15 | inactive: 1.29
B16 | inactive: 0.432
B17 | inactive: 0.519
B18 | inactive: 1.2
B19 | inactive: 0.896

Biological target: SHP2 N-SH2 domain T52S
Assay: as above
Settings: peptide library: pTyr-Var

Binder | enrichment score
B1 | inactive: 1.08
B2 | inactive: 0.928
B3 | inactive: 0.826
B4 | inactive: 0.632
B5 | inactive: 0.664
B6 | inactive: 1.23
B7 | inactive: 0.684
B8 | inactive: 0.817
B9 | inactive: 2.77
B10 | inactive: 0.538
B11 | inactive: 0.794
B12 | inactive: 1.04
B13 | active: 3.46
B14 | inactive: 0.95
B15 | inactive: 1.34
B16 | inactive: 0.401
B17 | inactive: 0.408
B18 | inactive: 1.35
B19 | inactive: 1.18

Biological target: SHP2 N-SH2 domain wild-type
Assay: as above
Settings: peptide library: pTyr-Var

Binder | enrichment score
B1 | inactive: 1.02
B2 | inactive: 1.16
B3 | inactive: 1.63
B4 | inactive: 0.879
B5 | inactive: 1.2
B6 | inactive: 1.36
B7 | inactive: 0.922
B8 | inactive: 1.07
B9 | inactive: 2.09
B10 | inactive: 0.69
B11 | inactive: 0.491
B12 | inactive: 0.6
B13 | inactive: 2.59
B14 | inactive: 1.32
B15 | inactive: 1.38
B16 | inactive: 0.45
B17 | inactive: 0.595
B18 | inactive: 1.03
B19 | inactive: 0.949
